Reference: the supplement of paper PMC11876631
± gives the standard deviation of the averaged measurements. Laboratory Escherichia coli strains with one amino-acid change in an essential protein, pooled on minimal glucose agar with carbenicillin or gentamicin at twice the control MIC (plus kanamycin and chloramphenicol for the plasmids), 48 h. Fold change of barcode share against drug-free plates; higher = less susceptible. Active = above 20 in both replicates (the paper's putatively resistant). '<' = one read or none on drug, '>' = one read or none on a drug-free plate. Shares are relative, so most strains fall below 1 when a few take over. Listed are strains with at least 15 reads on both drug-free plates, and hits; most hits rest on fewer reference reads. Replicate rank correlation about 0.5. Edits are read from barcodes.

B1: trpC V446A (protein)
chain: MMQTVLAKIVADKAIWVEARKQQQPLASFQNEVQPSTRHFYDALQGARTAFILECKKASPSKGVIRDDFDPARIAAIYKHYASAISVLTDEKYFQGSFNFLPIVSQIAPQPILCKDFIIDPYQIYLARYYQADACLLMLSVLDDDQYRQLAAVAHSLEMGVLTEVSNEEEQERAIALGAKVVGINNRDLRDLSIDLNRTRELAPKLGHNVTVISESGINTYAQVRELSHFANGFLIGSALMAHDDLHAAVRRVLLGENKVCGLTRGQDAKAAYDAGAIYGGLIFVATSPRCVNVEQAQEVMAAAPLQYVGVFRNHDIADVVDKAKVLSLAAVQLHGNEEQLYIDTLREALPAHVAIWKALSVGETLPAREFQHVDKYVLDNGQGGSGQRFDWSLLNGQSLGNVLLAGGLGADNCVEAAQTGCAGLDFNSAVESQPGIKDARLLASAFQTLRAY
B2: trpC V446W (protein)
chain: MMQTVLAKIVADKAIWVEARKQQQPLASFQNEVQPSTRHFYDALQGARTAFILECKKASPSKGVIRDDFDPARIAAIYKHYASAISVLTDEKYFQGSFNFLPIVSQIAPQPILCKDFIIDPYQIYLARYYQADACLLMLSVLDDDQYRQLAAVAHSLEMGVLTEVSNEEEQERAIALGAKVVGINNRDLRDLSIDLNRTRELAPKLGHNVTVISESGINTYAQVRELSHFANGFLIGSALMAHDDLHAAVRRVLLGENKVCGLTRGQDAKAAYDAGAIYGGLIFVATSPRCVNVEQAQEVMAAAPLQYVGVFRNHDIADVVDKAKVLSLAAVQLHGNEEQLYIDTLREALPAHVAIWKALSVGETLPAREFQHVDKYVLDNGQGGSGQRFDWSLLNGQSLGNVLLAGGLGADNCVEAAQTGCAGLDFNSAVESQPGIKDARLLASWFQTLRAY
B3: trpB L188W (protein)
chain: MTTLLNPYFGEFGGMYVPQILMPALRQLEEAFVSAQKDPEFQAQFNDLLKNYAGRPTALTKCQNITAGTNTTLYLKREDLLHGGAHKTNQVLGQALLAKRMGKTEIIAETGAGQHGVASALASALLGLKCRIYMGAKDVERQSPNVFRMRLMGAEVIPVHSGSATLKDACNEALRDWSGSYETAHYMWGTAAGPHPYPTIVREFQRMIGEETKAQILEREGRLPDAVIACVGGGSNAIGMFADFINETNVGLIGVEPGGHGIETGEHGAPLKHGRVGIYFGMKAPMMQTEDGQIEESYSISAGLDFPSVGPQHAYLNSTGRADYVSITDDEALEAFKTLCLHEGIIPALESSHALAHALKMMRENPDKEQLLVVNLSGRGDKDIFTVHDILKARGEI
B4: trpB F204Q (protein)
chain: MTTLLNPYFGEFGGMYVPQILMPALRQLEEAFVSAQKDPEFQAQFNDLLKNYAGRPTALTKCQNITAGTNTTLYLKREDLLHGGAHKTNQVLGQALLAKRMGKTEIIAETGAGQHGVASALASALLGLKCRIYMGAKDVERQSPNVFRMRLMGAEVIPVHSGSATLKDACNEALRDWSGSYETAHYMLGTAAGPHPYPTIVREQQRMIGEETKAQILEREGRLPDAVIACVGGGSNAIGMFADFINETNVGLIGVEPGGHGIETGEHGAPLKHGRVGIYFGMKAPMMQTEDGQIEESYSISAGLDFPSVGPQHAYLNSTGRADYVSITDDEALEAFKTLCLHEGIIPALESSHALAHALKMMRENPDKEQLLVVNLSGRGDKDIFTVHDILKARGEI
B5: trpB L188P (protein)
chain: MTTLLNPYFGEFGGMYVPQILMPALRQLEEAFVSAQKDPEFQAQFNDLLKNYAGRPTALTKCQNITAGTNTTLYLKREDLLHGGAHKTNQVLGQALLAKRMGKTEIIAETGAGQHGVASALASALLGLKCRIYMGAKDVERQSPNVFRMRLMGAEVIPVHSGSATLKDACNEALRDWSGSYETAHYMPGTAAGPHPYPTIVREFQRMIGEETKAQILEREGRLPDAVIACVGGGSNAIGMFADFINETNVGLIGVEPGGHGIETGEHGAPLKHGRVGIYFGMKAPMMQTEDGQIEESYSISAGLDFPSVGPQHAYLNSTGRADYVSITDDEALEAFKTLCLHEGIIPALESSHALAHALKMMRENPDKEQLLVVNLSGRGDKDIFTVHDILKARGEI
B6: trpB L188Q (protein)
chain: MTTLLNPYFGEFGGMYVPQILMPALRQLEEAFVSAQKDPEFQAQFNDLLKNYAGRPTALTKCQNITAGTNTTLYLKREDLLHGGAHKTNQVLGQALLAKRMGKTEIIAETGAGQHGVASALASALLGLKCRIYMGAKDVERQSPNVFRMRLMGAEVIPVHSGSATLKDACNEALRDWSGSYETAHYMQGTAAGPHPYPTIVREFQRMIGEETKAQILEREGRLPDAVIACVGGGSNAIGMFADFINETNVGLIGVEPGGHGIETGEHGAPLKHGRVGIYFGMKAPMMQTEDGQIEESYSISAGLDFPSVGPQHAYLNSTGRADYVSITDDEALEAFKTLCLHEGIIPALESSHALAHALKMMRENPDKEQLLVVNLSGRGDKDIFTVHDILKARGEI
B7: trpB L188D (protein)
chain: MTTLLNPYFGEFGGMYVPQILMPALRQLEEAFVSAQKDPEFQAQFNDLLKNYAGRPTALTKCQNITAGTNTTLYLKREDLLHGGAHKTNQVLGQALLAKRMGKTEIIAETGAGQHGVASALASALLGLKCRIYMGAKDVERQSPNVFRMRLMGAEVIPVHSGSATLKDACNEALRDWSGSYETAHYMDGTAAGPHPYPTIVREFQRMIGEETKAQILEREGRLPDAVIACVGGGSNAIGMFADFINETNVGLIGVEPGGHGIETGEHGAPLKHGRVGIYFGMKAPMMQTEDGQIEESYSISAGLDFPSVGPQHAYLNSTGRADYVSITDDEALEAFKTLCLHEGIIPALESSHALAHALKMMRENPDKEQLLVVNLSGRGDKDIFTVHDILKARGEI
B8: trpB F204W (protein)
chain: MTTLLNPYFGEFGGMYVPQILMPALRQLEEAFVSAQKDPEFQAQFNDLLKNYAGRPTALTKCQNITAGTNTTLYLKREDLLHGGAHKTNQVLGQALLAKRMGKTEIIAETGAGQHGVASALASALLGLKCRIYMGAKDVERQSPNVFRMRLMGAEVIPVHSGSATLKDACNEALRDWSGSYETAHYMLGTAAGPHPYPTIVREWQRMIGEETKAQILEREGRLPDAVIACVGGGSNAIGMFADFINETNVGLIGVEPGGHGIETGEHGAPLKHGRVGIYFGMKAPMMQTEDGQIEESYSISAGLDFPSVGPQHAYLNSTGRADYVSITDDEALEAFKTLCLHEGIIPALESSHALAHALKMMRENPDKEQLLVVNLSGRGDKDIFTVHDILKARGEI
B9: trpB V231Q (protein)
chain: MTTLLNPYFGEFGGMYVPQILMPALRQLEEAFVSAQKDPEFQAQFNDLLKNYAGRPTALTKCQNITAGTNTTLYLKREDLLHGGAHKTNQVLGQALLAKRMGKTEIIAETGAGQHGVASALASALLGLKCRIYMGAKDVERQSPNVFRMRLMGAEVIPVHSGSATLKDACNEALRDWSGSYETAHYMLGTAAGPHPYPTIVREFQRMIGEETKAQILEREGRLPDAVIACQGGGSNAIGMFADFINETNVGLIGVEPGGHGIETGEHGAPLKHGRVGIYFGMKAPMMQTEDGQIEESYSISAGLDFPSVGPQHAYLNSTGRADYVSITDDEALEAFKTLCLHEGIIPALESSHALAHALKMMRENPDKEQLLVVNLSGRGDKDIFTVHDILKARGEI
B10: trpB V231A (protein)
chain: MTTLLNPYFGEFGGMYVPQILMPALRQLEEAFVSAQKDPEFQAQFNDLLKNYAGRPTALTKCQNITAGTNTTLYLKREDLLHGGAHKTNQVLGQALLAKRMGKTEIIAETGAGQHGVASALASALLGLKCRIYMGAKDVERQSPNVFRMRLMGAEVIPVHSGSATLKDACNEALRDWSGSYETAHYMLGTAAGPHPYPTIVREFQRMIGEETKAQILEREGRLPDAVIACAGGGSNAIGMFADFINETNVGLIGVEPGGHGIETGEHGAPLKHGRVGIYFGMKAPMMQTEDGQIEESYSISAGLDFPSVGPQHAYLNSTGRADYVSITDDEALEAFKTLCLHEGIIPALESSHALAHALKMMRENPDKEQLLVVNLSGRGDKDIFTVHDILKARGEI
B11: trpB F204A (protein)
chain: MTTLLNPYFGEFGGMYVPQILMPALRQLEEAFVSAQKDPEFQAQFNDLLKNYAGRPTALTKCQNITAGTNTTLYLKREDLLHGGAHKTNQVLGQALLAKRMGKTEIIAETGAGQHGVASALASALLGLKCRIYMGAKDVERQSPNVFRMRLMGAEVIPVHSGSATLKDACNEALRDWSGSYETAHYMLGTAAGPHPYPTIVREAQRMIGEETKAQILEREGRLPDAVIACVGGGSNAIGMFADFINETNVGLIGVEPGGHGIETGEHGAPLKHGRVGIYFGMKAPMMQTEDGQIEESYSISAGLDFPSVGPQHAYLNSTGRADYVSITDDEALEAFKTLCLHEGIIPALESSHALAHALKMMRENPDKEQLLVVNLSGRGDKDIFTVHDILKARGEI
B12: trpB F241W (protein)
chain: MTTLLNPYFGEFGGMYVPQILMPALRQLEEAFVSAQKDPEFQAQFNDLLKNYAGRPTALTKCQNITAGTNTTLYLKREDLLHGGAHKTNQVLGQALLAKRMGKTEIIAETGAGQHGVASALASALLGLKCRIYMGAKDVERQSPNVFRMRLMGAEVIPVHSGSATLKDACNEALRDWSGSYETAHYMLGTAAGPHPYPTIVREFQRMIGEETKAQILEREGRLPDAVIACVGGGSNAIGMWADFINETNVGLIGVEPGGHGIETGEHGAPLKHGRVGIYFGMKAPMMQTEDGQIEESYSISAGLDFPSVGPQHAYLNSTGRADYVSITDDEALEAFKTLCLHEGIIPALESSHALAHALKMMRENPDKEQLLVVNLSGRGDKDIFTVHDILKARGEI

Target: Escherichia coli (laboratory strain)
Experiment: barcode share on antibiotic plates over drug-free plates; higher = less susceptible
Procedure: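 A pool of E. coli strains, each edited to carry one amino-acid change in an essential protein, was grown for 48 h on minimal glucose agar with or without antibiotic; strain barcodes were sequenced; mean of two replicates.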

[1] = antibiotic: carbenicillin, 2× MIC (3.1 µg/mL)
[2] = antibiotic: gentamicin, 2× MIC (MIC 0.45 µg/mL)

Protein	fold change of barcode share [1]	fold change of barcode share [2]
B1	0.535 ± 0.0078	0.0121 ± 0.003
B2	0.75 ± 0.013	0.0255 ± 0.0034
B3	0.456 ± 0.27	0.0464 ± 0.032
B4	0.469 ± 0.0069	0.0116 ± 0.0038
B5	0.319 ± 0.024	0.0134 ± 0.012
B6	0.275 ± 0.1	0.401 ± 0.55
B7	0.473 ± 0.26	< 0.00513
B8	0.45 ± 0.039	0.0066 ± 0.003
B9	0.672 ± 0.34	0.0102 ± 0.0042
B10	0.256 ± 0.069	0.012 ± 0.0095
B11	0.426 ± 0.18	0.00966 ± 0.0074
B12	0.379 ± 0.27	< 0.0112
